# This is one part of the list. One pool of 16,384 single-stranded DNAs met each Rep nickase domain in vitro (1 h at 37 °C, 3 µM enzyme); the outer parts of the 90-letter strands are left off. Uncut reads are compared with the no-enzyme pool on a log2 scale; the lower, the more was cut; hits are not called. Reads are scaled to the total; values above 0 arise when much of the pool is cut.
# System: T1, Rep nickase domain of tomato golden mosaic virus
# T1 sequence (residues 1-124 of Rep, tag left off): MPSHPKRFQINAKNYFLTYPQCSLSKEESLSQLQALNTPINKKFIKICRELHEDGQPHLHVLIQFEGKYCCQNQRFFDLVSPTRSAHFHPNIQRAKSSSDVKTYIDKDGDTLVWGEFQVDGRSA
# Test: uncleaved DNA left, log2 of reads against the no-enzyme library (log2 ratio); higher = less cleavage (more negative = more Rep cleavage of the k-mer); sequences stand for … in CTCGTCCG…ACCGGAGA
# Protocol: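 A pool of 90-nt single-stranded DNAs with seven random bases just before the constant AC of the nick site (name = the seven bases) was cut by 3 µM recombinant His6-SUMO-tagged Rep nickase domain (300 nM DNA, 50 mM HEPES pH 8.0, 50 mM NaCl, 1 mM MnCl2, 1 h, 37 °C, three replicates). Uncut DNA was amplified and sequenced.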
row,Sequence,uncleaved DNA left (log2)
1,GCTCAGG,0.0113
2,AGATGAT,0.202
3,CGGACCA,-0.037
4,ATCTTGC,-0.144
5,GTGGCTG,0.0922
6,AAGTTAT,-0.155
7,AAGATAA,0.126
8,CTTAGGG,0.114
9,CAGCAAG,-0.0469
10,GAGGGTC,0.0994
11,CGCGATG,0.0323
12,GTAAACC,0.0867
13,TACATTC,-0.034
14,CGGGATG,0.0358
15,GCGCGGA,0.116
16,CCGGAAA,0.0938
17,CTTGTTC,-0.0885
18,CCAGCTG,0.00708
19,GGGCATA,-0.0203
20,TTGCATG,0.0705

row,Sequence,uncleaved DNA left (log2)
1,CACCTCA,-0.0734
2,CTGGAGG,0.1
3,ACTCCCG,0.0912
4,GGTCTCT,0.0375
5,TTTCTAT,-0.104
6,GTACTGT,0.0636
7,TCAAAAT,0.0121
8,ACTCAAC,-0.0241
9,GGGCACG,-0.168
10,TAACGAC,-0.0867
11,TCGCATA,-0.118
12,GGTCATT,-0.16
13,AGCCGGC,0.0493
14,TCGTTGA,0.0293
15,CCAGCAG,-0.0201
16,CAGTATC,-0.137
17,CAATTTC,-1.68
18,CGGTACC,-0.0329
19,TGACGCA,0.0501
20,CAGCAGT,0.129
